Hit rate of the full screen: of about 310,000 compounds, about 2,200 (0.71%) showed an effect of 50% or more. The effect is printed as a negative number. The list shows a part of the results.
biological target: human ether-à-go-go-related gene (hERG) potassium channel (human, UniProt Q12809); assay: primary screen, population patch clamp on CHO cells stably expressing hERG
Sequence (Q12809 whole entry, looked up): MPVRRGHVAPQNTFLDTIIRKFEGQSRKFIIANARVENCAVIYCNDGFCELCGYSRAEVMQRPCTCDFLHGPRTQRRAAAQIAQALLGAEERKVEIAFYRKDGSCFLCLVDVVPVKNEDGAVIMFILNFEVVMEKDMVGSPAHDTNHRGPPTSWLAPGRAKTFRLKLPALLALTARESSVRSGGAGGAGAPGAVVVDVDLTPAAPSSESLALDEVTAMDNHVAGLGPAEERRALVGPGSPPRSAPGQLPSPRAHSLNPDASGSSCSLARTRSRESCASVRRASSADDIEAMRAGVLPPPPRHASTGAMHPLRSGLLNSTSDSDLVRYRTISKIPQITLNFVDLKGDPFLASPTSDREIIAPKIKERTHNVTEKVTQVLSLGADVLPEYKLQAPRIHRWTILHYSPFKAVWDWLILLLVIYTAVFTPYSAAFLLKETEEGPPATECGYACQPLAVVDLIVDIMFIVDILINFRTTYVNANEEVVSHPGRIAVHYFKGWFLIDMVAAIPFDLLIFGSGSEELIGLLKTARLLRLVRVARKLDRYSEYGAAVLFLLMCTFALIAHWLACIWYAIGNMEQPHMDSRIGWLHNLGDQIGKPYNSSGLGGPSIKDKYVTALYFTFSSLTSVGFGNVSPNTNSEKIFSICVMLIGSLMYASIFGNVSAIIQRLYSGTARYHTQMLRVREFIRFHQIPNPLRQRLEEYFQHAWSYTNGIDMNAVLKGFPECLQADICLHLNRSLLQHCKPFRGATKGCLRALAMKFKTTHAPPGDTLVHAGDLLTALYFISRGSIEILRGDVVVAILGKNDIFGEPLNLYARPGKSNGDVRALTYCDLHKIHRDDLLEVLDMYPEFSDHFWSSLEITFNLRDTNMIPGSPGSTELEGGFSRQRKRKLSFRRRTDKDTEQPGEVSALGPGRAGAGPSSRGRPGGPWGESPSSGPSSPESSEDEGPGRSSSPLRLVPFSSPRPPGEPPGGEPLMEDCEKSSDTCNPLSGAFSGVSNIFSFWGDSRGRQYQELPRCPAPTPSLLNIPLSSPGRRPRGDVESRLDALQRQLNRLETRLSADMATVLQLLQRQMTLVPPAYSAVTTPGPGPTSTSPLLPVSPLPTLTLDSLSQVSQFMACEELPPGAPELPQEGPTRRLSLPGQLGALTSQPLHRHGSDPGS

SMILES	hERG current change (%, negative = inhibition) at 1uM [%]
O=C(c1cccc2ccccc12)C1CCCN(C(=O)CCCn2cncn2)C1 (stereo not shown)	-0.755
CCCC1CCC(c2ccc(OCC)cc2)=CC1=O (stereo not shown)	11
COc1ccc(C(=O)NC(C(=O)NCc2ccccn2)C(C)C)cc1 (stereo not shown)	11.6
Br.O=C(O)Cc1sc(N/N=C\c2ccncc2)nc1-c1ccccc1	9.73
O=C(Cc1ccccc1Cl)NCCCn1ccnc1	11.5
COc1ccc(/C(C)=N/NC(=O)c2sccc2-n2cccc2)cc1	14
Nc1nc(SCCO)[nH]c(=O)c1NC(=O)c1ccc(Br)o1	18.2
COC(=O)c1ccc(Oc2cc(C)nc(Cl)n2)cc1	16.6
O=C1C(Cl)=C(N2CCN(c3ccccc3[N+](=O)[O-])CC2)C(=O)c2ccccc21	-2.78
Cc1cccc2cc(CN(Cc3ccc(F)cc3)C(=O)N(C)C)c3nnnn3c12	4.51
O=P(Cc1ccccn1)(c1ccccc1)c1ccccc1	9.86
COc1cccc(OC)c1C(=O)Nc1ccc(S(=O)(=O)N2CCCCC2)cc1	18.3
O=C1NCCC12C(=O)Nc1ccccc12 (stereo not shown)	18.6
CCCCC(=O)OCC(=O)c1[nH]c(C)c(C(C)=O)c1C	10.7
COc1ccc(OC)c(CN2CCCC(C(=O)c3ccccc3SC)C2)c1 (stereo not shown)	-26.3
CN(C)/C=N/c1nccc(-c2cccs2)n1	-0.754
CN(C)C=NC(=O)c1[nH]c2ccc(Cl)cc2c1-c1ccccc1	16.7
COc1ccc(C2(CNC(=O)C(c3ccccc3)c3ccccc3)CCOCC2)cc1OC	12.8
N#CCOc1nc(N2CCCCC2)nc(N2CCCCC2)n1	-1.07
Cc1cc(OCc2cc(C(=O)N3CCCCCC3)no2)cc(C)c1Cl	15.7
COc1cc(NC(=S)NCCCN2CCOCC2)cc(OC)c1OC	16
CCc1ccccc1N(CC(=O)NC(C)(C)C)C(=O)CCC(=O)Nc1ccccn1	19

SMILES	hERG current change (%, negative = inhibition) at 1uM [%]
CCOC(=O)c1nc2c(ccc3ccccc32)cc1C	12.6
C/C(=N/NC(=O)CN1CCN(Cc2ccccc2Cl)CC1)c1cccnc1	-1.17
CCC1CCCCN1CCCNC(=O)C1CCN(S(=O)(=O)N2CCC3(CC2)OCCO3)CC1 (stereo not shown)	13.7
COC1=C/C(=C/c2c(O)c(C#N)c3ccccn23)C=CC1=O	15.5
O=C1CCCN2N=C(SCC(=O)N3CCCCC3)SC2=N1	7.89
CCc1nc(SCC(=O)N2CCCC2)c2c(=O)n(C)c(=O)n(C)c2n1	8.53
CC1CCCCN1CCCNC(=O)CN1C(=O)c2cccnc2Oc2ccc(Cl)cc21 (stereo not shown)	7.94
CC(C)Oc1ccc(C(CCNCc2ccc(O)cc2)c2ccccc2)cc1 (stereo not shown)	9.26
Cc1ccc2nc3c(c(Nc4ccc(O)cc4)c2c1)CCC3.Cl	3.99
CCOC(=O)c1cnc(-n2nc(C)cc2C)nc1Nc1cccc(C(=O)O)c1	8.24
COc1cc(C2c3c(-c4ccccc4)n[nH]c3C(=O)N2c2ccccc2)ccc1O (stereo not shown)	26.1
CC1=Nc2ccccc2/C1=C/c1sc(=N)n(-c2nccs2)c1O	12.9
COc1ccc(CC(=O)N/N=C(\C)CC(=O)Nc2ccc3c(c2)OCCO3)cc1	8.23
COCCCNC(=S)N1CCC(NC(=O)c2ccco2)CC1	5
O=C(CN(Cc1ccccc1)S(=O)(=O)c1ccccc1)N/N=C/c1ccccc1[N+](=O)[O-]	-3.4
CCC1COC(c2cccn2Cc2ccc(Cl)cc2)=N1 (stereo not shown)	12.3
C#CCOCCOCCOCCNc1nc(N2CCN(C(=O)[C@H](Cc3cc4ccccc4[nH]3)n3cc(C(N)CC(C)C)nn3)CC2)nc(N2CCN(C(=O)[C@H](CCC(=O)O)n3cc(C(N)[C@H](C)CC)nn3)CC2)n1.Cl (stereo partly shown)	9.27
CCOCCCNC(=O)C(NC(=O)CNC(=O)c1ccccc1)c1ccccc1 (stereo not shown)	21.4
O=C(NC(=S)NC1CCS(=O)(=O)C1)c1cccs1 (stereo not shown)	14.4
CN(C)C(=O)CSc1cnc2ccccc2n1	6.47
COc1ccc(C2C(C(=O)N3CCN(c4ccccc4)CC3)c3ccccc3C(=O)N2C)cc1OC (stereo not shown)	0.0015
CCN(CC)CCNC(=O)c1ccc(NC(=O)/C=C/c2cc(OC)c(OC)c(OC)c2)cc1.Cl	7.53

SMILES	hERG current change (%, negative = inhibition) at 1uM [%]
CC(C)CNS(=O)(=O)c1cc(C(=O)OCC(=O)c2ccc3c(c2)OCCO3)c(Cl)cc1Cl	13.7
CN(C)CCn1c(=S)[nH]c2ccccc2c1=O	12
O=C(CNC(=S)N(Cc1ccccc1F)C1CCCCC1)NC1CC1	0.375
COc1ccc(N2CCN(C(=O)c3cc(=O)c4cc(C)ccc4o3)CC2)cc1	-3.09
CCCCCCc1nc2ccccc2c(=O)n1NC(=O)c1c(O)c2c(n(CC(C)C)c1=O)CCCC2	5.89
CCn1cc(C2=NC(C)CO2)c2ccccc21 (stereo not shown)	-0.637
CCc1cccc(OCCCn2ccnc2)c1.O=C(O)C(=O)O	1.69
CC1CCC(NC(=O)c2ccc(-n3cncn3)c([N+](=O)[O-])c2)CC1 (stereo not shown)	5.38
CC(C)(C)C(=O)Nc1sc2c(c1C#N)CCN(Cc1ccccc1)C2.Cl	10.3
CCOC(=O)CSc1nc2cc(C)cc(C)c2cc1C#N	13.4
COc1ccc(NC(=O)C2(c3ccc(NC(=O)c4ccc(OC)c(OC)c4)cc3)CCCC2)cc1	0.557
CCOC(=O)c1c(C)[nH]c(C(=O)CSc2nc(C)cc(C)n2)c1C	10.2
O=C(NC1CCCc2ccccc21)c1ccc(=O)[nH]c1 (stereo not shown)	-5.45
Cc1cc(C)c(C#N)c(SC(C(=O)NC(C)(C)C)c2ccccc2)n1 (stereo not shown)	15.7
CN(C)C(=O)c1cc(C(=O)c2ccc(F)cc2Cl)c[nH]1	11.9
COC(=O)c1sc2ccc(C)cc2c1C(=O)OC	9.41
CCOc1ccc(NC(=O)CN2C(=O)COc3ccc(S(=O)(=O)N4CCCCC4)cc32)cc1	6.28
O=C(NCc1ccc2c(c1)CCO2)Nc1cccc(C(F)(F)F)c1	13.1
CN(CC(=O)Nc1ccc(Cl)c(C(F)(F)F)c1)C(=O)c1ccc(OCC2CCCO2)cc1 (stereo not shown)	11.5
O=C(O)c1ccc(-c2nc(-c3ccccc3Cl)cs2)cc1	4.9
CCOc1ccc(CCNC(=O)COC(=O)COc2ccc(C#N)cc2)cc1OCC	1.47
CCOC(=O)C(Cc1cc(C(C)=O)ccc1OCC)C(=O)OCC	6.74

SMILES	hERG current change (%, negative = inhibition) at 1uM [%]
O=C(CSC1=Nc2ccccc2C2=NC(c3ccccc3)C(=O)N12)NCC1CCCO1 (stereo not shown)	3.29
CC1CC(=O)C(C2c3ccccc3CCN2C(=O)CCl)C(=O)C1 (stereo not shown)	1.3
CC(C)C(=O)N=C1SC2CS(=O)(=O)CC2N1Cc1ccccc1 (stereo not shown)	5.09
CCC(=O)NCCc1nc2cc(NC(=O)c3ccccc3OC)ccc2n1C	11.3
O=[N+]([O-])c1cccnc1Sc1ccc(F)cc1	4.1
CCOc1ccccc1C(=O)OCC(=O)Nc1cc(S(=O)(=O)N2CCOCC2)ccc1C	5.08
O=C(N/C(=C\c1cn(-c2ccccc2)nc1-c1ccc(Cl)cc1)C(=O)N1CCOCC1)c1ccccc1	10.5
O=C(COC(=O)c1ccc2c(=O)n3c(nc2c1)CCC3)NC1CCS(=O)(=O)C1 (stereo not shown)	7.45
Cc1cccc2cccnc12	10.6
CCCN1C(=O)c2ccccc2NC1c1ccc(Br)cc1 (stereo not shown)	6.1
COCCCNC(=O)c1c(N)n(-c2ccc3c(c2)OCO3)c2nc3ccccc3nc12	10.2
Cc1ccc(NC(=O)N2CCCC2C(=O)NCc2ccccc2Cl)cc1 (stereo not shown)	12.4
CC(=O)Nc1ccc2nc(CN3CCN(Cc4ccc(F)cc4)C(CCO)C3)ccc2c1 (stereo not shown)	5.81
Cc1c(Cl)cccc1NC(=O)CCCN1C(=O)CCC1=O	16.3
COc1cccc(C(=O)C2CCCN(C(=O)c3ccccc3Cl)C2)c1 (stereo not shown)	13.2
CCOc1ccccc1-n1nnnc1SCC(=O)NC(=O)Nc1ccc2c(c1)OCCO2	9.7
Cc1c(Cl)cccc1NC(=O)CSc1nccn1C	10.8
COc1cccc(-n2cc3c(=O)n(C)c(=O)n(C)c3c2)c1	8.62
CCOC(=O)COc1ccc(S(=O)(=O)Nc2ccc3c(c2)OCCO3)cc1	6.16
Cc1ccc(N(Cc2ccccc2F)S(C)(=O)=O)c(C)c1	9.26
Cc1sc(NC(=O)CN2CCOCC2)c(C#N)c1C	6.46
CCOC(=O)[C@@H]1[C@H]2COc3ccccc3[C@H]2N2C(=O)N(c3ccc(F)cc3)C(=O)[C@]12C	6.09
